# In the supplement of paper PMC12217912:
# This is one part of the list. The full chains were built here from the parent and the listed change. Values near 0.05 are background.
# B1: TEV protease; numbered along this chain (parent)
# chain: MGESLFKGPRDYNPISSSICHLTNESDGHTTSLYGIGFGPFIITNKHLFRRNNGTLVVQSLHGVFKVKDTTTLQQHLVDGRDMIIIRMPKDFPPFPQKLKFREPQREERICLVTTNFQTKSMSSMVSDTSCTFPSGDGIFWKHWIQTKDGQCGSPLVSTRDGFIVGIHSASNFTNTNNYFTSVPKNFMELLTNQEAQQWVSGWRLNADSVLWGGHKVFMVKPEEPFQPVKEATQL
# Variants of: B1
# Test: raw area under fraction-flipped curve 0-4 h after induction (AUC4h, not background-subtracted), DNA-recorder readout of cleavage of the substrate (dimensionless); higher = more cleavage of the substrate by the protease variant
# Settings: temperature: 34 °C; time window: 0-4 h after rhamnose induction
# Procedure: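 In vivo DNA recorder in E. coli TOP10(DE3) ΔrhaA at 34 °C. Each TEVp single-site mutant (parent TEVp 0) is paired with a single-site variant of the 7-mer TEVs (canonical ENLYFQ|S). The substrate sits between flexible linkers in a Bxb1-sfGFP-TEVs-SsrA fusion, so cleavage stabilises Bxb1 and speeds flipping of a recombination array, read by NGS. The value is the raw area under the fraction-flipped curve over 0-4 h after rhamnose induction (AUC4h), with ≥20 reads per time point. It is not background-subtracted; inactive controls average about 0.047.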
# 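Note: Bxb1 expression induced with 0.2% (w/v) L-rhamnose at OD600 near 0.5, cultures sampled hourly, flipped fraction per protease–substrate barcode pair counted by paired-end Illumina sequencing.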
Variant,area with substrate ENLYFAS,area with substrate ENLYFCS,area with substrate ENLYFES,area with substrate ENLYFGS,area with substrate ENLYFHS,area with substrate ENLYFIS,area with substrate ENLYFKS,area with substrate ENLYFLS,area with substrate ENLYFMS,area with substrate ENLYFNS,area with substrate ENLYFPS,area with substrate ENLYFRS,area with substrate ENLYFSS,area with substrate ENLYFTS,area with substrate ENLYFYS,area with substrate ENLYFDS,area with substrate ENLYFFS,area with substrate ENLYFVS,area with substrate ENLYFWS
MGESLFKGPRDYNPISSSICHLTNESDGHTTSLYGIGFGPFIITNKHLFRRNNGTLVVQSLHGVFKVKDTTTLQQHLVDGRDMIIIRMPKDFPPFPQKLKFREPQREERICLVTTNFQTKSMSSMVSDTSCTFPSGDGIFWKHEIQTKDGQCGSPLVSTRDGFIVGIHSASNFTNTNNYFTSVPKNFMELLTNQEAQQWVSGWRLNADSVLWGGHKVFMVKPEEPFQPVKEATQL [W144E],0.0676,0.0662,0.0636,0.0547,0.0534,0.0582,0.0723,0.0596,0.0699,0.0464,0.0693,0.0615,0.0609,0.0668,0.0621,,,,
MGESLFKGPRDYNPISSSICHLTNESDGHTTSLYGIGFGPFIITNKHLFRRNNGTLVVQSLHGVFKVKDTTTLQQHLVDGRDMIIIRMPKDFPPFPQKLKFSEPQREERICLVTTNFQTKSMSSMVSDTSCTFPSGDGIFWKHWIQTKDGQCGSPLVSTRDGFIVGIHSASNFTNTNNYFTSVPKNFMELLTNQEAQQWVSGWRLNADSVLWGGHKVFMVKPEEPFQPVKEATQL [R102S],0.0531,0.0434,,,0.0485,0.0566,0.073,0.0677,0.0487,0.044,0.0577,0.048,0.0454,0.0476,0.0482,0.0499,0.0644,0.0419,
MGESLFKGPRDYNPISSSICHLTNESDGHTTSLYGIGFGPFIITNKHLFRRNNGTLVVQSLHEVFKVKDTTTLQQHLVDGRDMIIIRMPKDFPPFPQKLKFREPQREERICLVTTNFQTKSMSSMVSDTSCTFPSGDGIFWKHWIQTKDGQCGSPLVSTRDGFIVGIHSASNFTNTNNYFTSVPKNFMELLTNQEAQQWVSGWRLNADSVLWGGHKVFMVKPEEPFQPVKEATQL [G63E],0.0552,,0.0749,0.0617,0.0489,,0.0603,,0.0654,0.069,0.0556,0.0438,0.0449,,,0.0591,0.0496,0.0195,0.0599
MGESLFKGPRDYNPISSSICHLTNESDGHTTSLYGIGFGPFIITNKHLFRRNNGTLVVQSLHGVFKVKDTTTLQQHLVDGRDMIIIRMPKDSPPFPQKLKFREPQREERICLVTTNFQTKSMSSMVSDTSCTFPSGDGIFWKHWIQTKDGQCGSPLVSTRDGFIVGIHSASNFTNTNNYFTSVPKNFMELLTNQEAQQWVSGWRLNADSVLWGGHKVFMVKPEEPFQPVKEATQL [F92S],0.035,0.0522,0.0618,,0.073,0.0526,0.0521,0.0587,0.0708,0.0493,,,,,,0.0536,0.0394,0.0687,
MGESLFKGPRDYNPISSSICHLTNEIDGHTTSLYGIGFGPFIITNKHLFRRNNGTLVVQSLHGVFKVKDTTTLQQHLVDGRDMIIIRMPKDFPPFPQKLKFREPQREERICLVTTNFQTKSMSSMVSDTSCTFPSGDGIFWKHWIQTKDGQCGSPLVSTRDGFIVGIHSASNFTNTNNYFTSVPKNFMELLTNQEAQQWVSGWRLNADSVLWGGHKVFMVKPEEPFQPVKEATQL [S26I],0.0539,,,0.0542,,,,0.0605,0.0554,,0.0643,0.0548,,0.0336,,0.0517,0.0675,0.0735,0.0589
MGESLFKGPRDYNPISSSICHLTNESDGHTTSLYGIGFGPFIITNKHLFRRNNGTLVVQSLHGVFKVKDTTTLQQHLVDGRDMIIIRMPKDFPPFPQKLKFREPQREERICLVTTNFQTKSMSSMVSDTSCTFPSGDGIFWKHWIQTKDGQCGSPLVSTRDGFIVGIHSASNFTNTNNYFTSVPKNFMELLTNQEAQQWVSGWRLNADSVLWGGHKVFMVKPEEPFQPVKYATQL [E231Y],0.0455,0.0472,,,,,0.0698,,0.0668,,0.0563,,0.0619,0.0662,,0.057,0.0667,0.0895,0.0603
MGESLFKGPRDYNPISSSICHLTNESDGHTTSLYGIGFGPFIITNKHLFRRNNGTLVVQSLHGVFKVKDTTTLQQHLVDGRDMIIIRMPKDFPPFPQKLKFREPQREERICLVGTNFQTKSMSSMVSDTSCTFPSGDGIFWKHWIQTKDGQCGSPLVSTRDGFIVGIHSASNFTNTNNYFTSVPKNFMELLTNQEAQQWVSGWRLNADSVLWGGHKVFMVKPEEPFQPVKEATQL [T114G],0.0362,,0.0692,,,0.0569,0.057,,,0.0608,0.0628,0.0622,,,0.0416,0.0582,0.0739,0.0751,
MGESLFKGPRDYNPISSSICHLTNESDGHTTSLYGIGFGPFIITNKHLFRRNNGTLVVQSLHGVFKVKDTTTLQQHLVDGRDMIIIRMPKDFPPFPQKLKFREPQREERICLVTTNFQTKSMSSMVSDTSCTFPSGDGIFWKHWIQTKDGQCGSPLVSTRDGFIVGIHSASNFTNTNNYFTSVPKNFMELLTNQEAQQWVSGWRLNADSVLWGGHKVFMVKPEEPFQPVKEATQW [L235W],0.0625,0.0605,,,,0.0466,0.0542,,0.0702,0.0478,0.0438,0.063,0.0577,0.0531,0.0693,,0.075,0.0686,0.058
MGESLFKGDRDYNPISSSICHLTNESDGHTTSLYGIGFGPFIITNKHLFRRNNGTLVVQSLHGVFKVKDTTTLQQHLVDGRDMIIIRMPKDFPPFPQKLKFREPQREERICLVTTNFQTKSMSSMVSDTSCTFPSGDGIFWKHWIQTKDGQCGSPLVSTRDGFIVGIHSASNFTNTNNYFTSVPKNFMELLTNQEAQQWVSGWRLNADSVLWGGHKVFMVKPEEPFQPVKEATQL [P9D],0.0589,0.0498,0.0592,0.08,,0.0601,,,,0.0646,0.0689,,,,,0.053,0.0562,,
